Source: PubChem BioAssay AID651582 (Sanford-Burnham Center for Chemical Genomics, 2012)
Values joined by “and” are separate entries in the source; they are usually repeats but may differ in a detail not shown here. Equal entries are not always repeated. This is one part of the list. These are further read-outs of the screen, such as a control signal, another cell line or another target. No call is given for them. Compounds called inactive in the main read-out are mostly missing here.

Experiment: TAG lipid buildup reduction in H9c2 cells – cell-based, uHTS, fluorescence, primary screen (AID 651582)
Details: Nile Red lipid (TAG) fluorescence, measured here:, at 12.5 µM, cells loaded with 200 µM oleic acid

Row | Structure (SMILES) | DAPI nuclei signal change (viability), lower = more cytotoxic
1 | NC1=NC[C@H](Cc2ccccc2)N1CCc1cc(C(F)(F)F)cc(C(F)(F)F)c1 | -11.2%
2 | C=CCN1C(=O)/C(=C2/Sc3ccccc3N2C)SC1=Nc1ccccc1C | -9.6%
3 | O=C(Nc1ccc2oc(-c3cccnc3)nc2c1)c1ccc([N+](=O)[O-])o1 | -37.9%
4 | Cc1ccc(/C=N/NC(=O)c2cc(-c3cccnc3)nc3ccccc23)cc1 | -27.4%
5 | O=C(CSc1nc2ccc(Nc3nc(N4CCOCC4)nc(N4CCOCC4)n3)cc2s1)Nc1ccccc1F | -4.87%
6 | O=C1C=CC(=O)c2c(O)c(N3CCN(CCOCCO)CC3)c(Br)c(O)c21 | -46.1%
7 | C=CC(=O)N1C/C(=C/c2ccc(F)cc2)C(=O)/C(=C\c2ccc(F)cc2)C1 | -47.7%
8 | COc1ccc(CN(C)C[C@@H]2OCCCC[C@H](C)Oc3ccc(NC(=O)Nc4ccc(F)cc4)cc3C(=O)N([C@H](C)CO)C[C@H]2C)cc1 | -26.8%
9 | CNCCCN1c2ccccc2CCc2ccccc21 | -29.8%
10 | Cc1ccc(C(=O)Nc2cc(C)c(OCC(=O)N3CCOCC3)c(C)c2)cc1 | -5.97%
11 | Cc1cccc(N(Cc2ccccc2)C(=O)CCl)c1 | -31.7%
12 | CCOC(=O)c1[nH]c(C)c(C(=O)OC(C)C(=O)Nc2ncc(Cl)cc2Cl)c1C (stereo not drawn) | -10.1%
13 | CC(=O)Nc1ccc(SC[C@H](CC(C)C)N2CCN(CC(C)C)CCC2=O)cc1 | -26.5%
14 | Cc1ccc(C)c(N=Nc2ccc(O)c3ncccc23)c1 | -32.1%
15 | CN(C)CCNC(=O)c1cccc2ccc(-c3ccc(-c4ccccc4)cc3)nc12 | 173%
16 | CCN1CCCC1CNC(=O)c1cc2c(-c3ccc(Cl)cc3)nn(C)c2s1 (stereo not drawn) | 55.6%
17 | CCCCN1C2=C(C(=O)CCC2)C(c2ccc(Cl)c(Cl)c2)C2=C1c1ccccc1C2=O (stereo not drawn) | -3.49%
18 | CCN(CCCNC(=O)c1cn(CC)c2ccc(S(=O)(=O)N(C)C)cc2c1=O)c1cccc(C)c1 | 22.6%
19 | Cc1ccc(-c2cc(C(F)F)n3ncc(C(=O)Nc4c(C)nn(Cc5c(Cl)cccc5Cl)c4C)c3n2)cc1 | -45.7%
20 | CC(C)(C)N1C(=O)[C@H]2[C@@H](c3ccc(Br)cc3)N3C(=O)N(c4ccc(Br)cc4)C(=O)[C@@]3(Cc3ccccc3)[C@H]2C1=O | 0.139%

Row | Structure (SMILES) | DAPI nuclei signal change (viability), lower = more cytotoxic
21 | COc1ccccc1CNC(=O)/C=C/c1ccc(Br)o1 | -39.1%
22 | CN1C(=O)C(O)(CC(=O)c2ccccn2)c2cc(Br)ccc21 (stereo not drawn) | -18.9%
23 | S=C(NN=C(c1ccccc1)c1ccccn1)N(Cc1ccccn1)Cc1ccccn1 | -41%
24 | O=C(NC1CCCCC1)C(c1ccccc1)N(Cc1ccc2c(c1)OCO2)C(=O)c1cnsn1 (stereo not drawn) | -10.6%
25 | O=c1c(Br)c(Br)cnn1-c1ccccc1 | -46%
26 | Cc1[nH]c2c(C)cccc2c1CCNC(=O)c1ccc2c(c1[N+](=O)[O-])C(=O)c1ccccc1C2=O | -12.6%
27 | CN(C)CCCNC(=O)C[C@H]1C[C@H](C(=O)N2CCCCC2)[C@@]2(C)c3[nH]c4cc(-c5ccco5)ccc4c3CCN2C1=O | -38.8%
28 | COC(=O)Nc1nc(-c2ccccc2)c(C(=O)c2ccccc2)s1 | -28.8%
29 | COc1cc(C(=O)Nc2nc3ccc(C)cc3s2)ccc1OCc1c(C)noc1C | 11.6%
30 | O=C1C(NS(=O)(=O)c2cccs2)=C(N2CCN(c3cccc(Cl)c3)CC2)C(=O)c2ccccc21 | -4.52%
31 | CCOc1cc2[nH]c(=O)n(CCc3ccc(OC)c(OC)c3)c(=O)c2cc1OCC | 2.85%
32 | COc1ccc(Cn2c(SCc3ccccc3C)nc3cc(OC)c(OC)cc3c2=N)cc1 | -23.1%
33 | COC(=O)c1cc(C(=O)N2CCN(c3ccccc3OC)CC2)cc([N+](=O)[O-])c1 | -40.6%
34 | CCN(CC)c1ccc(/C=C2\CCC(/C=C(/C#N)C(=O)Nc3ccccc3F)=C2N2CCOCC2)cc1 | -4.51%
35 | CSc1cc(-c2ccccc2)n(Cc2c(Cl)cccc2Cl)c(=O)c1C#N | -28.5%
36 | Fc1ccc(Oc2nc(-c3ccccn3)nc3ccccc23)cc1 | -11.9%
37 | COc1cccc(Nc2nc(C(N)Cc3ccc(C(F)(F)F)cc3)cs2)n1 (stereo not drawn) | -42.5%
38 | COc1ccc2nc(C)cc(N/N=C/c3ccccc3)c2c1 | -0.472%
39 | COc1ccc(NC(=O)C2(C)Cc3c(-c4cccc(C(N)=O)c4)ccnc3O2)cn1 (stereo not drawn) | -34.5%
40 | COc1ccc(OC)c(Nc2nc(-c3sc(NC(=O)CC(C)C)nc3C)cs2)c1 | -1.28%

Row | Structure (SMILES) | DAPI nuclei signal change (viability), lower = more cytotoxic
41 | CCCC[C@H](CN[C@@H](CNC)[C@H](C)CC)NCCC12CCC(CC1)C2 | -20.4%
42 | CCOC(=O)C1CCCCN1C(=O)c1cc2ccc(OC)cc2c2cc(OC)c(OC)cc12 (stereo not drawn) | 7.05%
43 | O=C(CSc1cccc2cccnc12)Nc1ccccc1F | -33.8%
44 | COc1cc(OC)c2c(-c3ccccc3)cc(=O)oc2c1C(CCN1CCN(c2ccccc2)CC1)c1ccc(N(C)C)cc1 (stereo not drawn) | 6.31%
45 | CCOC(=O)CN(C(=O)CSc1nnc2c(n1)[nH]c1ccccc12)c1ccccc1 | -9.24%
46 | CNC(=O)c1ccc(-c2sc3nc(N4CCOCC4)c4c(c3c2N)CCCC4)o1 | 45.9%
47 | Cc1cc(N(CCO)CCO)ccc1N=Nc1cc(F)ccc1F | -5.39%
48 | O=[N+]([O-])c1cccc(S(=O)(=O)N2CN(c3ccc(Br)cc3)c3nc4ccccc4nc32)c1 | 8.55%
49 | c1ccc(CSC2=NNC(c3ccccn3)S2)cc1 (stereo not drawn) | -18.2%
50 | CCN1CCN(Cc2ccc(NC(=O)c3ccc(C)c(NC(=O)c4c[nH]c5cc(C(F)(F)F)ccc5c4=O)c3)cc2C(F)(F)F)CC1 | -1.58% and -28.9%
51 | Nc1ccc(C(=O)N/N=C\c2cc(N=Nc3cccc4ccccc34)ccc2O)cc1 | -28%
52 | O=C1/C(=C\c2ccc(Cl)c(Cl)c2)CN(C(=O)CCN2CCOCC2)C/C1=C/c1ccc(Cl)c(Cl)c1 | -48.8%
53 | Cc1nn2c(N3CCN(C)CC3)c3c(nc2c1-c1ccccc1)CCCC3 | -32.7%
54 | COCCN(Cc1ccccc1)C(=O)C1CCN(C(=O)Nc2ccccc2)CC1 | -2.05%
55 | O=C1c2ccc3c4c(ccc(c24)C(=O)N1c1cccc(O)c1)C(=O)N(c1cccc(O)c1)C3=O | -19.7%
56 | CCOC(=O)c1sc2nc(CSc3ccccc3)nc(NCCN(C)C)c2c1C | -21.2%
57 | COc1ccc2cc(Br)ccc2c1CC(=O)NC1CC(C)(C)NC(C)(C)C1 | -15.3%
58 | CC(=NNC(=S)N1CC2CCC(CC2)C1)c1cccc(C)n1 | -35.6%
